Source: the supplement of paper PMC11417369
This is one part of the list.

Each sequence was assayed on PF3D7_0420300 AP2 domain 1 (GST-tagged) (assay: gcPBM binding intensity (ln(normalized median fluorescence intensity)); higher = stronger DNA binding).
Method in brief: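 Each value is the highest Masliner-normalised natural-log median intensity across replicate spots of either orientation of a probe. The probes were primer-extended double-stranded 36-bp intergenic genomic sequences on an Agilent 4 × 180k array, alongside negative controls, exposed for 1 h to GST-tagged P. falciparum DNA-binding domains expressed in E. coli. Bound protein was picked up with Alexa488 anti-GST antibody and scanned at 488 nm.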

Row | Sequence | gcPBM binding intensity (ln)
1 | ATATTTAAATAATATTCACACACAAAATTATATTTT [CACACA_site7955] | 9.42
2 | CATATAAAAATATATGCACACAAATAAAAAATTATA [CACACA_site9210] | 9.47
3 | ATTTCTCAATCGTAATGTACAAAAAAAAGGGAAAAG [XGTACX_site2781] | 9.27
4 | ACAAACAAAGAAAGAACACACATACACAATATACCT [CACACA_site5566] | 9.95
5 | ATTAAAAAGACAAAAAAAAAATTTTTTTTTTTTTTT [CACACA_negctrl_site1027] | 9.07
6 | GTAGCAATAAACATATGTACATATATATATTTTTTC [XGTACX_site5814] | 9.36
7 | AAATCAACGATCTATACATGCATATAATATATACAT [TGCATGCA_site25] | 9.24
8 | TAATAATACCCTTGCTGTACCAAATAAAGTTGAATA [XGTACX_site6922] | 9.15
9 | TTTCATAACAAAAAAGTGCAAAATAGCACGAACATT [GTGCAC_site9703] | 9.38
10 | AAAAATTATATACATCATAGAATTAACATTTTAAAT [GTGCAC_negctrl_site369] | 9.13
11 | AGAAAAAGGAGAAAAAGTACAAAACGGAGTAGTATT [XGTACX_site3858] | 9.74
12 | AAAAAAAAAAAGTTTACACACATTAATTTTACATAT [CACACA_site834] | 9.53
13 | AAAAAAATACCATTCACACATATTCTTTTATTATTT [CACACA_site5113] | 9.25
14 | TATTATTGCATATTTACACACGTACTAATTTAAACA [CACACA_site970] | 9.55
15 | TTTTTCTATAAAAAAAAAAAAAAAAAATATATATAT [TGCATGCA_negctrl_site535] | 8.86
16 | TTGTATATTTTATGTACACACAATAAGTTAATATAA [CACACA_site4655] | 9.31
17 | AAAATAATGTATATATGTACATATAAATATATATAT [XGTACX_site8081] | 9.4
18 | ATAAAAGGAAGAAAATGTACATATAATTATATGCAT [XGTACX_site8421] | 9.44
19 | TGTATACTATTAAATTGTACACATAAGAAATATTAT [XGTACX_site5839] | 9.14
20 | TTTTACAAATATAATGGGTGAGCTATCAAAATAAAT [GTGCAC_negctrl_site91] | 9.31
21 | TATATATATATATATATAATACGAATTTGTAGTACA [TGCATGCA_negctrl_site224] | 9.27
22 | ATGTTTTTAAAAAATTGTACATAATATTTTTTATAA [XGTACX_site7692] | 9.01

Row | Sequence | gcPBM binding intensity (ln)
23 | ATAAAAATCATGTTGGTGCGAAATTTTATTATCAGA [GTGCAC_site9735] | 9.17
24 | ATATTAATTCGTTTTGTACACACATAATGAATAATT [CACACA_site8701] | 9.44
25 | AATTATTTACCCTATACACACAAAACAGACTAAAAA [CACACA_site6688] | 9.74
26 | AAGGTATGATTAATCACACACATAAATATATATACA [CACACA_site2658] | 9.65
27 | TTATGTATAAACACACGTACACACACTAAGTATATC [XGTACX_site3254] | 9.74
28 | TTTAAAAAGATATATACACACATATAAATAAATATA [CACACA_site6436] | 9.34
29 | ACACATACACATTAGGTGCATATATTTCAATATTAC [GTGCAC_site9423] | 9.43
30 | AGCCTCGGGGTCATATATATATATATATATATATAT [CACACA_negctrl_site512] | 9.27
31 | CCACGTATAATATGTACACACACATATATACAAAAA [CACACA_site8208] | 9.79
32 | ATTATATTTTTAAGTACACACATATATATATATATA [CACACA_site5925] | 9.46
33 | TTTTTTTTGTGGTGTCGTACATATGTTTGTTTTAAG [XGTACX_site1759] | 9.66
34 | ACATATATATATATATATATATATATATAATATTTA [CACACA_negctrl_site633] | 8.9
35 | ATTATGCTACAAGGAGAACACACAATTGCCACTTTT [CACACA_site8673] | 9.45
36 | CCACGAGAATATATAGTGCATAATAATTTTTTTTTG | 9.09
37 | GGTGATAATAAGCATACACACACACCCAAAAAAAAA [CACACA_site8137] | 9.73
38 | AAAAAAAAAAAGAAAGCACACAATACATATGTATAA [CACACA_site1137] | 9.44
39 | ATATATATCAGACACACACACATGTTTTAAAACTAT [CACACA_site77] | 9.92
40 | TAAATTTTTAAATACACACATACACCCATACAGACA [CACACA_site548] | 9.76
41 | TTATTTTAATAACCTACACACATTTTGTATATTTTA [CACACA_site4000] | 9.63
42 | AAATGATGGAAAAAATAAATTTTTGTACAAAAATTA [CACACA_negctrl_site814] | 9.05
43 | TTATAAATATTCTTGGGTACTTAAGATGATATGTAA [XGTACX_site5496] | 8.91
44 | TAATAAAATATGTACGTGCACATAATTATACTAAAA | 9.26
